PMC8214628
No constants are given. Whether binding was seen depends on the method and setting. In cells and extracts the contact can be indirect. Some entries that bind do so weakly or less than the wild type. For some of these results: Where a sequence is shown, tags or fusion partners need not be part of it. Values belong to the molecule of their own block, whether it stands above or below them.

Experiments:
[1] = biological target: FLAG-FH (UniProt P07954); test: co-IP; 293T cells co-transfected with Myc-STAT5A and FLAG-tagged proteins; lysed in 0.1% NP40 buffer; anti-FLAG agarose beads, 4 °C overnight; eluted with FLAG peptide; blotted for Myc and FLAG
[2] = biological target: T1, FLAG-OGDH (UniProt Q02218); test: as above
T1 sequence: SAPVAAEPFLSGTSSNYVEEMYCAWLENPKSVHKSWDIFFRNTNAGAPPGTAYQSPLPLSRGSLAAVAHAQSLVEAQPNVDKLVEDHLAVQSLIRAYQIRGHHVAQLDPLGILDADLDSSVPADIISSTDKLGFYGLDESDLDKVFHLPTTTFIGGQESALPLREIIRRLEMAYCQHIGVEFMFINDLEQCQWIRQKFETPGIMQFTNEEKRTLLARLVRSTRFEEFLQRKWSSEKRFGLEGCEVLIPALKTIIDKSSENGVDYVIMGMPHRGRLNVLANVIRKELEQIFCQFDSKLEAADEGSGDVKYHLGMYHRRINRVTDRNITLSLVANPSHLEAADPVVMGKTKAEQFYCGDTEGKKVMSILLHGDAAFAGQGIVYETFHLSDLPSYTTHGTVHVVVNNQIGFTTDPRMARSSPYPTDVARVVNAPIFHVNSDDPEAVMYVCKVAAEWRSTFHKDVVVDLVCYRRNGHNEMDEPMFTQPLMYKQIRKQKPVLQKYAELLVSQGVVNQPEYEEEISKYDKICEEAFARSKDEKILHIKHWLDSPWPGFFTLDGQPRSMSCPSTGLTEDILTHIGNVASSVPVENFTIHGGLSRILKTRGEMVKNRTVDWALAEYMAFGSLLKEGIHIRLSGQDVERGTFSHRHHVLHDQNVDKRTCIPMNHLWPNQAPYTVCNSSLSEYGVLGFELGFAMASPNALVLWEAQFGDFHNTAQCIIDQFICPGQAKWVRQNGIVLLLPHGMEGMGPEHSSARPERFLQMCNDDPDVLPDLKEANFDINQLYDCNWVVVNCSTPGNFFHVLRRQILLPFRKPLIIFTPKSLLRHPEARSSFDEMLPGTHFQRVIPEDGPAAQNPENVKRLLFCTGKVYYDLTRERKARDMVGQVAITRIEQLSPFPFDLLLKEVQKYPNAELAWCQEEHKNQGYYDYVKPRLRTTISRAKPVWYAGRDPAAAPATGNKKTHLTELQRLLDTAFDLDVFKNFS

[3] = biological target: T2, FLAG-ACO2 (UniProt Q99798); test: as above
T2 sequence: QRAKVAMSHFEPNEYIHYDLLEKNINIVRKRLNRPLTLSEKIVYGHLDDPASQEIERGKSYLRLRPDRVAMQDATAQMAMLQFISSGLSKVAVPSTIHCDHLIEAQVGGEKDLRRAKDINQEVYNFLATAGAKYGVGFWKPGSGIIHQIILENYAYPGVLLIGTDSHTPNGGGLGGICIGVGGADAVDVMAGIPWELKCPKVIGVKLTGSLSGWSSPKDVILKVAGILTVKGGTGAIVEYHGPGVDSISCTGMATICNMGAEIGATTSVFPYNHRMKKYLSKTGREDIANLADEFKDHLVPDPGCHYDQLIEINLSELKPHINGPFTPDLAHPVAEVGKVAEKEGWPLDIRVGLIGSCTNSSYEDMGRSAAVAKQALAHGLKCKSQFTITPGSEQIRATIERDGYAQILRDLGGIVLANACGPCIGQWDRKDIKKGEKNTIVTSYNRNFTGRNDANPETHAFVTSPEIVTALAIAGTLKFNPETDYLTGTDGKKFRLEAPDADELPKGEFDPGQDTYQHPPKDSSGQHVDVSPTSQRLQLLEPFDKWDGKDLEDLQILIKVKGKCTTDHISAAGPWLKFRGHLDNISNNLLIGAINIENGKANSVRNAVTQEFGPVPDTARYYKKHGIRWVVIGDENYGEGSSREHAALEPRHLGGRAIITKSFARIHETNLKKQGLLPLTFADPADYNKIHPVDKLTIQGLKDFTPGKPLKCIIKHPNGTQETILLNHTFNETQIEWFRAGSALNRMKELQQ

[4] = biological target: T3, FLAG-IDH2 (UniProt P48735); test: as above
T3 sequence: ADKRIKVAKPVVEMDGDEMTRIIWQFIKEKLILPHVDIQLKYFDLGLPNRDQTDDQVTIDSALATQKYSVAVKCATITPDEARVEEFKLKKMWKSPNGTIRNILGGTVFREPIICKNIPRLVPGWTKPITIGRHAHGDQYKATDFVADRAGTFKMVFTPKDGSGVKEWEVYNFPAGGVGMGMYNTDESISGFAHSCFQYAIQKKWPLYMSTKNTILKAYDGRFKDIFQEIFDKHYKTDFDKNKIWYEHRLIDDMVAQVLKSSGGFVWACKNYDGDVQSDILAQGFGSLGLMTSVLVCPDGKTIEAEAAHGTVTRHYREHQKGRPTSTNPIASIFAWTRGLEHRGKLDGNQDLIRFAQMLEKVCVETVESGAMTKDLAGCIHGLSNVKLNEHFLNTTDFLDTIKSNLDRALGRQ

[5] = biological target: T4, FLAG-ALDOA (UniProt P04075); test: as above
T4 sequence: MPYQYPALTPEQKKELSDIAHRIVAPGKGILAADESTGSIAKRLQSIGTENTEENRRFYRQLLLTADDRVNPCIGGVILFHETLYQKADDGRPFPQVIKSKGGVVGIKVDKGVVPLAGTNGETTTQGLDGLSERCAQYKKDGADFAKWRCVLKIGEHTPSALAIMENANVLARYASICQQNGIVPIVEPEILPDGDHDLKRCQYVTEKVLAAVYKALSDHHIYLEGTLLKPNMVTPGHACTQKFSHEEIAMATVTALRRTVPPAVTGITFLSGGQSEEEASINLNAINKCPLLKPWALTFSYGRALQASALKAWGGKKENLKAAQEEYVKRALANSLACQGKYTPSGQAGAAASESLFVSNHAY

[6] = biological target: endogenous STAT5A of primary mouse hepatocytes (mouse (endogenous in primary mouse hepatocytes)) (UniProt P42230); test: co-IP; endogenous proteins; anti-STAT5A antibody and Protein A/G beads, 4 °C overnight; lysates of 293T, HeLa, MIHA cells and primary mouse hepatocytes; control IgG
[7] = biological target: T5, FLAG-DLAT (UniProt P10515); test: co-IP; parental, STAT5A-KO and reconstituted (STAT5A-WT, mito-STAT5A, STAT5A-4A) HeLa cells transiently transfected with DLAT-FLAG; whole-cell lysate, anti-FLAG antibody; endogenous subunits blotted; more subunits precipitated in STAT5A-KO cells
T5 sequence: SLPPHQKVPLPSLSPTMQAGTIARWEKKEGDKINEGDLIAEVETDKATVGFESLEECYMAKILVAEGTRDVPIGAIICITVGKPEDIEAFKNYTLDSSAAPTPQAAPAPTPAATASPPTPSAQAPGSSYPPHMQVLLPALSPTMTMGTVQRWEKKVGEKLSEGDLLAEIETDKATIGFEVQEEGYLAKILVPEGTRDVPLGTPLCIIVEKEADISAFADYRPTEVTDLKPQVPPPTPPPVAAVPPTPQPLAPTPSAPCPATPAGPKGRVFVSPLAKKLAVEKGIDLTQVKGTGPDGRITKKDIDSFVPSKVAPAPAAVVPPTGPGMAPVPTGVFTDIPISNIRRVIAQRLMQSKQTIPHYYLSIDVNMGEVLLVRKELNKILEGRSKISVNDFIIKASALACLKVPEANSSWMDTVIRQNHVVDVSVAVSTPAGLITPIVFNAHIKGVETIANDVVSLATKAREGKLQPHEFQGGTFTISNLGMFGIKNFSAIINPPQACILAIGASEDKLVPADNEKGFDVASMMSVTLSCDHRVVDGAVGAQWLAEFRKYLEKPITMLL

B1: endogenous PDHA1 of primary mouse hepatocytes (protein, UniProt P35486 30-390)
chain: FANDATFEIKKCDLHRLEEGPPVTTVLTREDGLKYYRMMQTVRRMELKADQLYKQKIIRGFCHLCDGQEACCVGLEAGINPTDHLITAYRAHGFTFTRGLPVRAILAELTGRRGGCAKGKGGSMHMYAKNFYGGNGIVGAQVPLGAGIALACKYNGKDEVCLTLYGDGAANQGQIFEAYNMAALWKLPCIFICENNRYGMGTSVERAAASTDYYKRGDFIPGLRVDGMDILCVREATKFAAAYCRSGKGPILMELQTYRYHGHSMSDPGVSYRTREEIQEVRSKSDPIMLLKDRMVNSNLASVEELKEIDVEVRKEIEDAAQFATADPEPPLEELGYHIYSSDPPFEVRGANQWIKFKSVS
binding [6]: binds

B2: endogenous PDHB (protein, UniProt P11177 31-359)
chain: LQVTVRDAINQGMDEELERDEKVFLLGEEVAQYDGAYKVSRGLWKKYGDKRIIDTPISEMGFAGIAVGAAMAGLRPICEFMTFNFSMQAIDQVINSAAKTYYMSGGLQPVPIVFRGPNGASAGVAAQHSQCFAAWYGHCPGLKVVSPWNSEDAKGLIKSAIRDNNPVVVLENELMYGVPFEFPPEAQSKDFLIPIGKAKIERQGTHITVVSHSRPVGHCLEAAAVLSKEGVECEVINMRTIRPMDMETIEASVMKTNHLVTVEGGWPQFGVGAEICARIMEGPAFNFLDAPAVRVTGADVPMPYAKILEDNSIPQVKDIIFAIKKTLNI
binding [7]: binds

B5: endogenous DLAT of primary mouse hepatocytes (protein, UniProt Q8BMF4 86-642)
chain: SLPPHQKVPLPSLSPTMQAGTIARWEKKEGEKISEGDLIAEVETDKATVGFESLEECYMAKILVPEGTRDVPVGSIICITVEKPQDIEAFKNYTLDLAAAAAPQAAPAAAPAPAAAPAAPSASAPGSSYPTHMQIVLPALSPTMTMGTVQRWEKKVGEKLSEGDLLAEIETDKATIGFEVQEEGYLAKILVPEGTRDVPLGAPLCIIVEKQEDIAAFADYRPTEVTSLKPQAAPPAPPPVAAVPPTPQPVAPTPSAAPAGPKGRVFVSPLAKKLAAEKGIDLTQVKGTGPEGRIIKKDIDSFVPSKAAPAAAAAMAPPGPRVAPAPAGVFTDIPISNIRRVIAQRLMQSKQTIPHYYLSVDVNMGEVLLVRKELNKMLEGKGKISVNDFIIKASALACLKVPEANSSWMDTVIRQNHVVDVSVAVSTPAGLITPIVFNAHIKGLETIASDVVSLASKAREGKLQPHEFQGGTFTISNLGMFGIKNFSAIINPPQACILAIGASEDKLIPADNEKGFDVASVMSVTLSCDHRVVDGAVGAQWLAEFKKYLEKPITMLL
binding [6]: binds

Second part, the molecule after the results:

binding [1]: no binding
binding [2]: no binding
binding [3]: no binding
binding [4]: no binding
binding [5]: no binding
Molecule: Myc–STAT5A (from UniProt P42229 1-794)

binding [6]: binds
B3: endogenous PDHB of primary mouse hepatocytes (protein, UniProt Q9D051 31-359)
chain: VQLTVREAINQGMDEELERDEKVFLLGEEVAQYDGAYKVSRGLWKKYGDKRIIDTPISEMGFAGIAVGAAMAGLRPICEFMTFNFSMQAIDQVINSAAKTYYMSAGLQPVPIVFRGPNGASAGVAAQHSQCFAAWYGHCPGLKVVSPWNSEDAKGLIKSAIRDNNPVVMLENELMYGVAFELPAEAQSKDFLIPIGKAKIERQGTHITVVAHSRPVGHCLEAAAVLSKEGIECEVINLRTIRPMDIEAIEASVMKTNHLVTVEGGWPQFGVGAEICARIMEGPAFNFLDAPAVRVTGADVPMPYAKVLEDNSVPQVKDIIFAVKKTLNI

binding [6]: binds
B4: endogenous DLD of primary mouse hepatocytes (protein, UniProt O08749 36-509)
chain: ADQPIEADVTVIGSGPGGYVAAIKSAQLGFKTVCIEKNETLGGTCLNVGCIPSKALLNNSHYYHMAHGKDFASRGIEIPEVRLNLEKMMEQKHSAVKALTGGIAHLFKQNKVVHVNGFGKITGKNQVTATKADGSTQVIDTKNILVATGSEVTPFPGITIDEDTIVSSTGALSLKKVPEKLVVIGAGVIGVELGSVWQRLGADVTAVEFLGHVGGIGIDMEISKNFQRILQRQGFKFKLNTKVTGATKKSDGKIDVSVEAASGGKAEVITCDVLLVCIGRRPFTQNLGLEELGIELDPKGRIPVNNRFQTKIPNIYAIGDVVAGPMLAHKAEDEGIICVEGMAGGAVHIDYNCVPSVIYTHPEVAWVGKSEEQLKEEGIEFKIGKFPFAANSRAKTNADTDGMVKILGHKSTDRVLGAHILGPGAGEMVNEAALALEYGASCEDIARVCHAHPTLSEAFREANLAAAFGKPINF
